Screen size: about 310,000 compounds; about 14,000 (4.5%) showed an effect of 50% or more. The effect is printed as a negative number. Some of the results follow.
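Note: peak tail current of the secondary pulse compared with the same well before compound.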

The target in this assay is human ether-à-go-go-related gene (hERG) potassium channel (human, UniProt Q12809). The assay can be described thus: primary screen, population patch clamp on CHO cells stably expressing hERG.
Sequence of human ether-à-go-go-related gene (hERG) potassium channel (Q12809 whole entry, looked up): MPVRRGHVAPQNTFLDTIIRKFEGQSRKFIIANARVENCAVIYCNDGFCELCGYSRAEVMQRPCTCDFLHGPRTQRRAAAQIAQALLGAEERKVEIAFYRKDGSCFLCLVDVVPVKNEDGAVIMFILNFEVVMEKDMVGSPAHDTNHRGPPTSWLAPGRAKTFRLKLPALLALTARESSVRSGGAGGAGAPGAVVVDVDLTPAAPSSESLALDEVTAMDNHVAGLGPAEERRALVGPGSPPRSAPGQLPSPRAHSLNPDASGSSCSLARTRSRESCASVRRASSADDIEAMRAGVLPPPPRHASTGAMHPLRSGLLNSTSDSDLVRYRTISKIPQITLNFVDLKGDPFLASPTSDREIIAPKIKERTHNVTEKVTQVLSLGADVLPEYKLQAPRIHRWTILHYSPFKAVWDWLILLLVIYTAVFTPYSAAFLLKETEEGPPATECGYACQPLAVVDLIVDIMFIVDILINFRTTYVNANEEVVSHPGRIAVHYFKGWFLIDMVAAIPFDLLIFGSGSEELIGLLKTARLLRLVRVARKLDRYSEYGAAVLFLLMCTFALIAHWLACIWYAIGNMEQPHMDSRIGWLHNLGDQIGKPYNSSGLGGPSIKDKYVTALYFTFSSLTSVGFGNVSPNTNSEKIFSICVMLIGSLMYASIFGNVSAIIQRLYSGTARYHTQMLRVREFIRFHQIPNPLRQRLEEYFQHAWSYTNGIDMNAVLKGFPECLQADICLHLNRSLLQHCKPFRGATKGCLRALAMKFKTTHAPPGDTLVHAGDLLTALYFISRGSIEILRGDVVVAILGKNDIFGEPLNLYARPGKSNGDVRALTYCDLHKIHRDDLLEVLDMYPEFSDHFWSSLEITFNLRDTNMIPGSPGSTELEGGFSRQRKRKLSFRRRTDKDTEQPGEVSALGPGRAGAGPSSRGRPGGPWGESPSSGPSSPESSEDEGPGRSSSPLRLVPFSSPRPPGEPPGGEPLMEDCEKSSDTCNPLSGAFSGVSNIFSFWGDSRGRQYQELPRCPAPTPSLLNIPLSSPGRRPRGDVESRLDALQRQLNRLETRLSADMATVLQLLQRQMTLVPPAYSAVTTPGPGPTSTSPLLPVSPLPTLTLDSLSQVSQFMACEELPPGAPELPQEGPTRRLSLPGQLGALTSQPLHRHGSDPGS
Regarding `COc1ccc(NC(=O)Nc2nnc(Cc3ccccc3)s2)cc1`, the “hERG current change (%, negative = inhibition) at 10uM” value is given as 12.1%.

For the molecule `Cc1ccc(C)c(NC(=O)CN(C)C(=O)c2cccc(S(=O)(=O)N3CCN(Cc4ccccc4)CC3)c2)c1`, the “hERG current change (%, negative = inhibition) at 10uM” value is 9.47%. `O=C(c1cc(COc2ccc(F)cc2Cl)on1)N1C[C@H]2CC[C@H]1C2`: the “hERG current change (%, negative = inhibition) at 10uM” value is -7.99%. As to `O=C(Oc1ccc2c(c1)OCO2)c1cccs1`, the “hERG current change (%, negative = inhibition) at 10uM” value is given as 4.6%. For `O=C(CN(Cc1ccc(F)cc1)C(=O)CCC(=O)Nc1nccs1)NCC1CCCO1` (stereo not shown), the “hERG current change (%, negative = inhibition) at 10uM” value is given as 12.4%. For the molecule `O=C1CC(C(=O)O)C2(CCCC2)O1` (stereo not shown), the “hERG current change (%, negative = inhibition) at 10uM” value was -2.45%.

Turning to `COc1cccc(NC(=O)COC(=O)c2ccccc2C(=O)N(C)c2ccccc2)c1`, the “hERG current change (%, negative = inhibition) at 10uM” value is recorded as -9.28%. As to `CCCCN(CC(=O)Nc1c(C)cccc1CC)C(=O)SCC`, the “hERG current change (%, negative = inhibition) at 10uM” value is on record as 1.07%. Regarding `CCn1cc(/C=C/C(=O)Nc2ccn(Cc3c(F)c(F)c(F)c(F)c3F)n2)cn1`, the “hERG current change (%, negative = inhibition) at 10uM” value is given as -5.77%. In the case of `O=C(CCC(=O)Nc1cccc([N+](=O)[O-])c1)NCc1ccccc1`, the “hERG current change (%, negative = inhibition) at 10uM” value is -11.6%. For the molecule `O=C(Nn1cnnc1)C(c1ccccc1)c1ccccc1`, the “hERG current change (%, negative = inhibition) at 10uM” value came to 2.78%. Take `Cc1nnc(NC(=O)COc2ccccc2)s1`: the “hERG current change (%, negative = inhibition) at 10uM” value is 2.23%. On to `COc1cc(CC(=O)N(C)CC(=O)Nc2cc(C)ccc2C)cc(OC)c1OC`, for which the “hERG current change (%, negative = inhibition) at 10uM” value worked out at 11%.

As to `O=C1NC(=Nc2ccccc2)S/C1=C\c1cccnc1`, the “hERG current change (%, negative = inhibition) at 10uM” value is on record as -18.4%.

As for `C/C(=N\NC(=O)C(=O)Nc1cccc(Cl)c1)c1ccncc1`, the “hERG current change (%, negative = inhibition) at 10uM” value is reported as -12.1%. As to `CCOC(=O)C(Cc1ccc(NC(=O)/C(=C/c2ccc(OC(C)=O)cc2)NC(C)=O)cc1)N1C(=O)c2ccccc2C1=O` (stereo not shown), the “hERG current change (%, negative = inhibition) at 10uM” value was 4.63%. For the molecule `CC(=O)c1ccc(OCC(=O)Nc2ccc3c(c2)CCC3)cc1`, the “hERG current change (%, negative = inhibition) at 10uM” value worked out at 7.89%. With `S=C(Nc1ccc2nccnc2c1)N1CCCC1`, the “hERG current change (%, negative = inhibition) at 10uM” value is given as 42.5%. Regarding `CN1CCN(/C=N/c2c(C#N)cnn2-c2ccccc2)CC1`, the “hERG current change (%, negative = inhibition) at 10uM” value was -19%. On to `CSc1ccc(CN2CCCN(C)CC2)cc1`, for which the “hERG current change (%, negative = inhibition) at 10uM” value is -10.1%. As for `COc1cc(C)c(Cl)c(C)c1S(=O)(=O)NCc1cccnc1`, the “hERG current change (%, negative = inhibition) at 10uM” value is reported as 4.92%. For the molecule `CC1CCCN(c2ccc(C(=O)Nc3nnc(C4CC4)s3)cc2[N+](=O)[O-])C1` (stereo not shown), the “hERG current change (%, negative = inhibition) at 10uM” value is reported as 9.38%. Take `Cl.NCCCCCc1nnc(SCc2ccc(Cl)c(Cl)c2)o1`: the “hERG current change (%, negative = inhibition) at 10uM” value is recorded as -27.8%. As for `CC(C)=NN1C(=O)c2ccccc2NC1(C)C`, the “hERG current change (%, negative = inhibition) at 10uM” value is 26.9%. For the molecule `COc1ccc(C(=O)CC(c2ccccc2)C2CCCCC2=O)cc1` (stereo not shown), the “hERG current change (%, negative = inhibition) at 10uM” value stood at 12.2%. As for `COc1cccc(C(=O)NCC(=O)N2CCC(C)CC2)c1`, the “hERG current change (%, negative = inhibition) at 10uM” value amounted to 15.4%. Take `Cc1cccc(CSc2nc3sc(C)c(C)c3c(=O)n2Cc2ccco2)c1`: the “hERG current change (%, negative = inhibition) at 10uM” value is given as 15.5%. Then `CCOc1cc(CNc2ccc3c(c2)CCC3)ccc1O`, with 10.8%. As to `O=C(c1cc2c(s1)-c1ccccc1OC2)N1CCCC1`, the “hERG current change (%, negative = inhibition) at 10uM” value is on record as -4.69%.

As for `COc1ccc(NC(=O)C2CCN(S(C)(=O)=O)CC2)cc1OC`, the “hERG current change (%, negative = inhibition) at 10uM” value is on record as 15.2%. Consider `c1ccc(-c2nc(-c3ccccn3)no2)cc1`, for which the “hERG current change (%, negative = inhibition) at 10uM” value is reported as -1.66%. As to `O=C(c1cc(Br)c[nH]1)N1CCSCC1`, the “hERG current change (%, negative = inhibition) at 10uM” value was found to be 4.32%. On to `CC(=O)C(C)Oc1ccc(Cc2ncc(C(F)(F)F)cc2Cl)cc1` (stereo not shown), for which the “hERG current change (%, negative = inhibition) at 10uM” value is -16.5%. For `O=C(Nc1ccccc1)c1cc([N+](=O)[O-])ccc1N1CCNCC1`, the “hERG current change (%, negative = inhibition) at 10uM” value is given as -37.8%. On to `OC(CNC1CCCCC1)c1ccccc1` (stereo not shown), for which the “hERG current change (%, negative = inhibition) at 10uM” value amounted to 12.1%. On to `C#CCOC(=O)c1cc(Cl)c(=O)n(Cc2ccc(Cl)cc2Cl)c1`, for which the “hERG current change (%, negative = inhibition) at 10uM” value is -18.8%.

Turning to `CCCSc1nc(NCc2ccco2)c2c3c(sc2n1)COC(C)(C)C3`, the “hERG current change (%, negative = inhibition) at 10uM” value is recorded as -8.2%. For `COc1ccc(C2=NN(S(C)(=O)=O)C(c3cccs3)C2)cc1` (stereo not shown), the “hERG current change (%, negative = inhibition) at 10uM” value is -1.23%. The value for `Cc1ccccc1NCC(=O)N=Nc1c(O)[nH]c2ccc([N+](=O)[O-])cc12` was 0.439%; that for `CCCN1CCN(C(=O)c2oc3ccccc3c2NC(=O)C2CC2)CC1` was -42.6%; that for `C=C(C)CN=c1scc(C)n1/N=C/c1ccco1` was -5.28%.

Regarding `O=c1cc(C(F)(F)F)[nH]c(=S)n1-c1ccccc1`, the “hERG current change (%, negative = inhibition) at 10uM” value came out at 35.2%. In the case of `Cc1c(Cl)cnc(NC(=O)COC(=O)c2cccc(S(=O)(=O)N3c4ccccc4CC3C)c2)c1Cl` (stereo not shown), the “hERG current change (%, negative = inhibition) at 10uM” value is -7.49%. `Cc1cccc(Cl)c1NC(=S)NCCc1ccccn1`: the “hERG current change (%, negative = inhibition) at 10uM” value came out at 11.9%. Regarding `Cc1cc(Cl)c(S(=O)(=O)N2CCSCC2)cc1OCC(=O)NC1CCCCC1`, the “hERG current change (%, negative = inhibition) at 10uM” value is recorded as -11.4%. Consider `FC(F)(F)c1ccc(Cl)c(N/N=C/c2ccc(N3CCOCC3)s2)c1`, for which the “hERG current change (%, negative = inhibition) at 10uM” value is recorded as 16.7%.

Values taken from paper PMC4336329 (PLoS ONE, 2015).
